# Test results from the supplement of paper PMC4166925.
# ± gives the standard deviation of the averaged measurements. The full ranking holds about 33,000 sequences; the median of “E-score (dimensionless, -0.5 to 0.5)” is about -0.049, and the highest 2% start at about 0.37. Some of the results follow.
# System: T1, PmTbr T-box DNA-binding domain (GST fusion)
# T1 sequence: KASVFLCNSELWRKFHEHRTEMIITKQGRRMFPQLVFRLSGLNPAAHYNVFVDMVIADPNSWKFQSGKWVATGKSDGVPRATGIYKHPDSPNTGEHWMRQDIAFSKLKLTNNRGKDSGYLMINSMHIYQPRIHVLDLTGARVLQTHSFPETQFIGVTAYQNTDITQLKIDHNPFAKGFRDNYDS
# Test: PBM E-score of 8-mer (E-score (dimensionless, -0.5 to 0.5)); Tbr is Tbrain of the sea star Patiria miniata (Pm) or the sea urchin Strongylocentrotus purpuratus (Sp); higher = stronger binding preference; most listed sequences are background and not binding sites
# Settings: the construct has about 5 more residues each side
# Description: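 Universal protein-binding microarray (Agilent AMADID 016060, 60-bp probes with a 35-bp variable region) incubated with 200 nM GST-fused Patiria miniata Tbr T-box DNA-binding domain (residues 272-466) in PBS pH 7.5. Scored for every ungapped 8-mer (given with its reverse complement) by the Universal PBM Analysis Suite as E-score (modified Wilcoxon-Mann-Whitney enrichment, range -0.5 to 0.5; >0.45 counts as bound) and Z-score of median probe intensity. Two replicate arrays (datasets 1 and 2).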
# 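Also: 200 nM protein in PBS on universal arrays averaged over duplicate arrays.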
row,Sequence,PBM E-score of 8-mer
1,GAGCGCTC,-0.123 ± 0.15
2,TACTATGA,-0.35 ± 0.09
3,AGTCGGAC,-0.289 ± 0.022
4,ATACCAAA,-0.106 ± 0.015
5,CCGATTTC,-0.0839 ± 0.034
6,AACTTCTC,-0.0488 ± 0.043
7,CCCCGCCC,0.0864 ± 0.0062
8,ACAGATAG,0.133 ± 0.019
9,ATGCACTC,-0.0205 ± 0.076
10,GCTGGGTA,-0.312 ± 0.099
11,AACAGTAT,-0.0671 ± 0.081
12,ACTTATGG,-0.0397 ± 0.046
13,CCATTGAG,0.0528 ± 0.01
14,AACGTTCC,-0.132 ± 0.063
15,GGAGTTTA,-0.00974 ± 0.034
16,CTTGAGAA,0.0967 ± 0.061
17,ATTTCGTA,-0.0252 ± 0.001
18,CAGGCTGC,-0.0417 ± 0.014
19,GTATTAAA,-0.255 ± 0.01
20,CCTAACAA,0.184 ± 0.055
21,CATCGCTC,-0.0662 ± 0.035
22,TAACGGTA,-0.0327 ± 0.085

row,Sequence,PBM E-score of 8-mer
1,TACTTTGA,-0.111 ± 0.023
2,GGGTCCGA,-0.123 ± 0.0063
3,CCTGATAA,-0.0611 ± 0.078
4,CCCCTAAA,-0.0904 ± 0.008
5,GGATCGCA,0.145 ± 0.089
6,CCAGGAGA,-0.265 ± 0.047
7,CATGGAGA,-0.185 ± 0.049
8,AATGCGGG,-0.187 ± 0.05
9,ATGGAAGC,-0.2 ± 0.058
10,CAGACATC,-0.273 ± 0.015
11,ATTAGGAG,-0.213 ± 0.017
12,CCGATAAC,0.118 ± 0.074
13,ACAGTGAT,0.0998 ± 0.024
14,GTTTTGAA,-0.154 ± 0.11
15,GGCGGTAA,-0.134 ± 0.027
16,AAGGTTCC,-0.257 ± 0.054
17,CCAAGTGA,0.146 ± 0.01
18,ATCGCACC,0.4642 ± 0.0032
19,GGCGTACC,-0.137 ± 0.039
20,CATAGATA,-0.161 ± 0.051
21,TTCGCGAA,0.3702 ± 0.0034
22,CGGAAAGC,-0.0354 ± 0.05

row,Sequence,PBM E-score of 8-mer
1,ATCTGCCC,-0.128 ± 0.072
2,AAACTTAG,-0.0934 ± 0.013
3,TCGATACA,-0.0855 ± 0.021
4,ACTAGCAC,0.381 ± 0.013
5,CCGGTGAC,0.0841 ± 0.059
6,CTCCGATA,0.03408 ± 0.00015
7,AGTTGTAA,0.0996 ± 0.046
8,ATTTTATA,-0.154 ± 0.01
9,AGCAATGG,0.0749 ± 0.041
10,GCTTCTAC,-0.2661 ± 0.0012
11,GACCAGTC,-0.312 ± 0.023
12,ATGGTGAG,0.223 ± 0.0051
13,AGGACAGA,0.0658 ± 0.03
14,CTTGAATA,-0.295 ± 0.018
15,CCTCCCAA,-0.189 ± 0.077
16,GGAGGAGA,-0.011 ± 0.0051
17,CAAATTGC,-0.0755 ± 0.056
18,ACGCTGCT,0.0117 ± 0.0035
19,GAACTAGA,-0.127 ± 0.0057
20,ATATGCTA,0.105 ± 0.0031
21,GCAAATAA,-0.00101 ± 0.049
22,CGTCTCTA,-0.108 ± 0.016

row,Sequence,PBM E-score of 8-mer
1,AACCTTCG,-0.135 ± 0.0027
2,AACCGTCA,0.0593 ± 0.013
3,CTGGCGAC,0.124 ± 0.059
4,TTGTCAAA,0.144 ± 0.09
5,GTACTCAC,0.165 ± 0.039
6,AAGTAAAG,-0.229 ± 0.036
7,TAGGTAGA,-0.0825 ± 0.048
8,CCTTCAAA,-0.154 ± 0.045
9,ATTCCCAG,-0.25 ± 0.009
10,CTGAGATA,-0.0661 ± 0.016
11,ACTGAGCT,-0.0168 ± 0.017
12,AAAGACTT,-0.307 ± 0.017
13,GTCAATGA,0.0412 ± 0.063
14,AAAATGCG,-0.0163 ± 0.0012
15,CAAGGCGC,0.2195 ± 0.0016
16,GGGAAAGA,-0.152 ± 0.053
17,GGGTGCAA,0.31 ± 0.0046
18,TAAAGATA,-0.157 ± 0.049
19,CTTCACTA,0.0129 ± 0.037
20,TAGTGCCA,0.249 ± 0.0097
